Measurements taken from the supplement of paper PMC10369915.
The other results are listed elsewhere or left out. Cut-off read from the data, not from the text of the source: active = 3.2 or more and inactive = the rest. The signal is at background level for most entries.

Key:
Test in all cases: enrichment score (SH2-bound / input frequency) (ratio); bacterial display of known human phosphotyrosine sites (pTyr-Var adds point mutants) read by sequencing; higher = stronger binding; tyrosines were phosphorylated by kinases first
Conditions in all cases: peptide library: pTyr-Var
SHP2 C-SH2 domain E139D = biological target: SHP2 C-SH2 domain E139D
[1] = biological target: SHP2 C-SH2 domain wild-type
SHP2 N-SH2 domain L43F = biological target: SHP2 N-SH2 domain L43F
SHP2 N-SH2 domain T42A = biological target: SHP2 N-SH2 domain T42A
SHP2 N-SH2 domain T52S = biological target: SHP2 N-SH2 domain T52S
[2] = biological target: SHP2 N-SH2 domain wild-type

Measured: enrichment score
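Note: displayed peptides selected on beads carrying the immobilized SH2 domain, with library peptides lacking any tyrosine serving as negative controls.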

QMWLKYSQSDL [SMC1A_Y714_R711W]
inactive: SHP2 C-SH2 domain E139D 2.16 | [1] 1.13 | SHP2 N-SH2 domain L43F 1.66 | SHP2 N-SH2 domain T42A 1.16 | SHP2 N-SH2 domain T52S 1.48 | [2] 1.42

NKEAICSGYIR [SMCHD1_Y283_Y283C]
inactive: SHP2 C-SH2 domain E139D 0.77 | [1] 0.909 | SHP2 N-SH2 domain L43F 0.809 | SHP2 N-SH2 domain T42A 0.525 | SHP2 N-SH2 domain T52S 0.629 | [2] 0.957

NKEAICSGFIR [SMCHD1_Y283_Y283C_YF]
inactive: SHP2 C-SH2 domain E139D 0.979 | [1] 0.935 | SHP2 N-SH2 domain L43F 0.99 | SHP2 N-SH2 domain T42A 0.716 | SHP2 N-SH2 domain T52S 0.68 | [2] 0.921

RPSELYYSKIG [SMG1_Y2253]
inactive: SHP2 C-SH2 domain E139D 0.421 | [1] 0.448 | SHP2 N-SH2 domain L43F 0.53 | SHP2 N-SH2 domain T42A 0.475 | SHP2 N-SH2 domain T52S 0.467 | [2] 0.428

RPSELYYSKIS [SMG1_Y2253_G2258S]
inactive: SHP2 C-SH2 domain E139D 0.984 | [1] 1.07 | SHP2 N-SH2 domain L43F 1.55 | SHP2 N-SH2 domain T42A 1.38 | SHP2 N-SH2 domain T52S 1.01 | [2] 1.07

PSELFYSKIGP [SMG1_Y2254_YF]
inactive: SHP2 C-SH2 domain E139D 1.02 | [1] 1.65 | SHP2 N-SH2 domain L43F 1.04 | SHP2 N-SH2 domain T42A 1.32 | SHP2 N-SH2 domain T52S 1.47 | [2] 1.07

VAHAVYQAVLS [SMG1_Y549]
inactive: SHP2 C-SH2 domain E139D 1.24 | [1] 1.06 | SHP2 N-SH2 domain L43F 1.25 | SHP2 N-SH2 domain T42A 1.05 | SHP2 N-SH2 domain T52S 1.17 | [2] 0.946

EDGCIYPGTIA [SMN1_Y109_A111G]
inactive: SHP2 C-SH2 domain E139D 0.749 | [1] 0.658 | SHP2 N-SH2 domain L43F 0.68 | SHP2 N-SH2 domain T42A 0.671 | SHP2 N-SH2 domain T52S 0.531 | [2] 0.924

ALIKAYDKAVA [SMN1_Y43]
inactive: SHP2 C-SH2 domain E139D 1.02 | [1] 0.913 | SHP2 N-SH2 domain L43F 0.797 | SHP2 N-SH2 domain T42A 0.77 | SHP2 N-SH2 domain T52S 0.682 | [2] 0.969

KSEMSCIDGEK [SORBS1_Y485_Y485C]
inactive: SHP2 C-SH2 domain E139D 0.458 | [1] 0.576 | SHP2 N-SH2 domain L43F 0.702 | SHP2 N-SH2 domain T42A 0.57 | SHP2 N-SH2 domain T52S 0.566 | [2] 0.641

KSSDVYVSFDF [SORL1_Y136_YF]
inactive: SHP2 C-SH2 domain E139D 1 | [1] 1.04 | SHP2 N-SH2 domain L43F 0.929 | SHP2 N-SH2 domain T42A 0.954 | SHP2 N-SH2 domain T52S 0.976 | [2] 0.953

DVYVSYDYGKS [SORL1_Y139]
inactive: SHP2 C-SH2 domain E139D 0.765 | [1] 0.801 | SHP2 N-SH2 domain L43F 0.828 | SHP2 N-SH2 domain T42A 0.652 | SHP2 N-SH2 domain T52S 0.714 | [2] 0.719

DVFVSYDCGKS [SORL1_Y139_Y141C_YF]
inactive: SHP2 C-SH2 domain E139D 0.673 | [1] 0.991 | SHP2 N-SH2 domain L43F 0.8 | SHP2 N-SH2 domain T42A 0.744 | SHP2 N-SH2 domain T52S 0.689 | [2] 0.872

KDHPDYKYQLR [SOX10_Y171_P175L]
inactive: SHP2 C-SH2 domain E139D 0.837 | [1] 0.978 | SHP2 N-SH2 domain L43F 0.884 | SHP2 N-SH2 domain T42A 0.71 | SHP2 N-SH2 domain T52S 0.775 | [2] 0.835

QTLEAYIRCNK [SPAST_Y604_W607C]
inactive: SHP2 C-SH2 domain E139D 0.707 | [1] 0.964 | SHP2 N-SH2 domain L43F 0.623 | SHP2 N-SH2 domain T42A 0.68 | SHP2 N-SH2 domain T52S 0.957 | [2] 1.02

AMIADYMFWLG [SPATA16_Y290]
inactive: SHP2 C-SH2 domain E139D 2.55 | [1] 2.89 | SHP2 N-SH2 domain L43F 2.65 | SHP2 N-SH2 domain T42A 2.09 | SHP2 N-SH2 domain T52S 2.42 | [2] 2.33

TVQVAYFTMMM [SPATA17_Y83_YF]
inactive: SHP2 C-SH2 domain E139D 1.05 | [1] 1.16 | SHP2 N-SH2 domain L43F 0.966 | SHP2 N-SH2 domain T42A 0.872 | SHP2 N-SH2 domain T52S 0.891 | [2] 1.2

VQVAFYTVMMN [SPATA17_Y84_M86V_YF]
inactive: SHP2 C-SH2 domain E139D 1.2 | [1] 1.31 | SHP2 N-SH2 domain L43F 1.05 | SHP2 N-SH2 domain T42A 1.07 | SHP2 N-SH2 domain T52S 1.03 | [2] 1.69

QDRTYYESVRT [SPEN_Y633]
inactive: SHP2 C-SH2 domain E139D 0.635 | [1] 1.29 | SHP2 N-SH2 domain L43F 0.574 | SHP2 N-SH2 domain T42A 0.939 | SHP2 N-SH2 domain T52S 0.64 | [2] 0.559

VPVPGYTKVPE [SPRR3_Y146_L149V]
inactive: SHP2 C-SH2 domain E139D 0.854 | [1] 0.861 | SHP2 N-SH2 domain L43F 0.774 | SHP2 N-SH2 domain T42A 0.565 | SHP2 N-SH2 domain T52S 0.719 | [2] 1.25

VGSEDYGRDLT [SPTAN1_Y1792]
inactive: SHP2 C-SH2 domain E139D 0.892 | [1] 0.874 | SHP2 N-SH2 domain L43F 1.11 | SHP2 N-SH2 domain T42A 0.726 | SHP2 N-SH2 domain T52S 0.874 | [2] 0.876

TDTAAYEERLR [SPTB_Y474_V478L]
inactive: SHP2 C-SH2 domain E139D 0.446 | [1] 0.433 | SHP2 N-SH2 domain L43F 0.507 | SHP2 N-SH2 domain T42A 0.489 | SHP2 N-SH2 domain T52S 0.474 | [2] 0.571

TLERHYEELQA [SPTBN2_Y834]
inactive: SHP2 C-SH2 domain E139D 0.916 | [1] 0.821 | SHP2 N-SH2 domain L43F 0.749 | SHP2 N-SH2 domain T42A 1.02 | SHP2 N-SH2 domain T52S 0.69 | [2] 1.11

MGSYNYLGFPR [SPTLC2_Y178_A182P]
inactive: SHP2 C-SH2 domain E139D 0.922 | [1] 1.55 | SHP2 N-SH2 domain L43F 1.04 | SHP2 N-SH2 domain T42A 2.41 | SHP2 N-SH2 domain T52S 0.939 | [2] 0.937

MGSFNYLGFPR [SPTLC2_Y178_A182P_YF]
inactive: SHP2 C-SH2 domain E139D 1.31 | [1] 1.01 | SHP2 N-SH2 domain L43F 0.925 | SHP2 N-SH2 domain T42A 0.932 | SHP2 N-SH2 domain T52S 0.944 | [2] 0.926

MGSFNYLGFAR [SPTLC2_Y178_YF]
inactive: SHP2 C-SH2 domain E139D 1.21 | [1] 1.12 | SHP2 N-SH2 domain L43F 1.04 | SHP2 N-SH2 domain T42A 1.1 | SHP2 N-SH2 domain T52S 1.13 | [2] 1.09

PPQFSYGLQTQ [SRA1_Y35]
inactive: SHP2 C-SH2 domain E139D 0.962 | [1] 0.677 | SHP2 N-SH2 domain L43F 0.712 | SHP2 N-SH2 domain T42A 0.667 | SHP2 N-SH2 domain T52S 0.76 | [2] 0.644

PPEFSYGLQTQ [SRA1_Y35_Q32E]
inactive: SHP2 C-SH2 domain E139D 0.864 | [1] 0.757 | SHP2 N-SH2 domain L43F 1.1 | SHP2 N-SH2 domain T42A 0.754 | SHP2 N-SH2 domain T52S 0.605 | [2] 0.912

AFLEDYFTSTK [SRC_Y522_E527K]
inactive: SHP2 C-SH2 domain E139D 1.4 | [1] 1.14 | SHP2 N-SH2 domain L43F 1.21 | SHP2 N-SH2 domain T42A 1.2 | SHP2 N-SH2 domain T52S 1.8 | [2] 1.18

LFCVHYFHRTF [SRD5A2_Y91]
inactive: SHP2 C-SH2 domain E139D 2.67 | [1] 2.84 | SHP2 N-SH2 domain L43F 3.04 | SHP2 N-SH2 domain T42A 2.39 | SHP2 N-SH2 domain T52S 2.63 | [2] 2.76

ESDYPYSSSYE [SRPK2_Y427_T426P]
inactive: SHP2 C-SH2 domain E139D 0.446 | [1] 0.439 | SHP2 N-SH2 domain L43F 0.499 | SHP2 N-SH2 domain T42A 0.396 | SHP2 N-SH2 domain T52S 0.442 | [2] 0.389

ESDFPYSSSFE [SRPK2_Y427_T426P_YF]
inactive: SHP2 C-SH2 domain E139D 0.444 | [1] 0.442 | SHP2 N-SH2 domain L43F 0.451 | SHP2 N-SH2 domain T42A 0.514 | SHP2 N-SH2 domain T52S 0.467 | [2] 0.519

SASSSYSRSRS [SRRM4_Y549_R547S]
inactive: SHP2 C-SH2 domain E139D 0.169 | [1] 0.309 | SHP2 N-SH2 domain L43F 0.31 | SHP2 N-SH2 domain T42A 0.233 | SHP2 N-SH2 domain T52S 0.344 | [2] 0.284

LEKISYVYMKR [SSX7_Y48]
inactive: SHP2 C-SH2 domain E139D 1.31 | [1] 1.64 | SHP2 N-SH2 domain L43F 0.814 | SHP2 N-SH2 domain T42A 1.66 | SHP2 N-SH2 domain T52S 1.11 | [2] 0.87

MKKMHYVDPDR [ST3GAL5_Y99_H104R]
inactive: SHP2 C-SH2 domain E139D 0.975 | [1] 0.891 | SHP2 N-SH2 domain L43F 0.844 | SHP2 N-SH2 domain T42A 0.741 | SHP2 N-SH2 domain T52S 0.786 | [2] 0.965

DLQDENDFKCK [STAT1_Y170_Y170N]
inactive: SHP2 C-SH2 domain E139D 0.499 | [1] 0.68 | SHP2 N-SH2 domain L43F 0.489 | SHP2 N-SH2 domain T42A 0.448 | SHP2 N-SH2 domain T52S 0.557 | [2] 0.491

LLKKMYLMLDN [STAT1_Y203]
inactive: SHP2 C-SH2 domain E139D 3.18 | [1] 2.62 | SHP2 N-SH2 domain L43F 2.98 | SHP2 N-SH2 domain T42A 3.01 | SHP2 N-SH2 domain T52S 3.17 | [2] 2.8
